# Source: PubChem BioAssay AID1745853 (National Center for Advancing Translational Sciences (NCATS), 2022)
# The other results are listed elsewhere or left out. These are further read-outs of the screen, such as a control signal, another cell line or another target. No call is given for them.
# Experiments:
# Assay in all cases: Primary Screen for Target Class Profiling of Small Molecule Inhibitors of Methyltransferases
# [1] = target: Guanidinoacetate N-methyltransferase (Homo sapiens) (UniProt Q14353); details: purified enzyme, MTase-Glo SAH luminescence; measured here: GAMT inhibition; at 40 µM; stronger effect = lower value
# In short: (§1)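 Each enzyme was reacted with SAM and its substrate, with compounds tested once at 40 uM; SAH formed was read by MTase-Glo luminescence.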
# [2] = target: Nicotinamide N-methyltransferase (Homo sapiens) (UniProt P40261); details: purified enzyme, MTase-Glo SAH luminescence; measured here: NNMT inhibition; at 40 µM; stronger effect = lower value
# In short: as §1
# [3] = target: Phenylethanolamine N-methyltransferase (Homo sapiens) (UniProt P11086); details: purified enzyme, MTase-Glo SAH luminescence; measured here: PNMT inhibition; at 40 µM; stronger effect = lower value
# In short: as §1
# [4] = target: Glycine N-methyltransferase (Homo sapiens) (UniProt Q14749); details: purified enzyme, MTase-Glo SAH luminescence; measured here: GNMT inhibition; at 40 µM; stronger effect = lower value
# In short: as §1
# [5] = target: Histamine N-methyltransferase (Homo sapiens) (UniProt P50135); details: purified enzyme, MTase-Glo SAH luminescence; measured here: HNMT inhibition; at 40 µM; stronger effect = lower value
# In short: as §1
# % is scaled to controls: 0 for no effect and ±100 for the full control effect.
Compound,"activity change, negative = inhibition [1] [%]","activity change, negative = inhibition [2] [%]","activity change, negative = inhibition [3] [%]","activity change, negative = inhibition [4] [%]","activity change, negative = inhibition [5] [%]"
CS(=O)(=O)CCNCc1nc(-c2ccc3ncnc(Nc4ccc(OCc5cccc(F)c5)c(Cl)c4)c3c2)cs1,1.47,-3.94,4.85,–,–
CN1CCN(S(=O)(=O)c2cc(C(=O)O)cc(-c3ccncc3)c2)CC1,0.536,-2.26,12.8,-1.43,2.54
CN1C(=O)c2cc(C(=O)NCc3ccco3)nn2CC1(C)C(=O)NCc1ccccc1 (stereo unspecified),4.87,4.25,2.02,3.65,1.82
COCCN1CC(C(=O)NCc2sc3ccccc3c2Cl)CCC1=O (stereo unspecified),1.98,-2.38,-8.39,-1.77,0.644
Cc1noc2c(NCCCn3ccnc3)cc(-c3ccccn3)nc12,-7.65,-20.1,-3.53,-15.8,-29.9
Cn1ccnc1C(O)c1cc2n(n1)CCN(S(=O)(=O)C1CC1)C2 (stereo unspecified),-2.98,-3.41,-2.39,-1.76,-0.971
Cc1nn(-c2ccccc2)c2c1C(C(C)C)N(C1CN([S+](C)(=O)[O-])C1)C2=O (stereo unspecified),0.738,0.591,1.99,-3.79,0.081
CC(C)NC(=O)Cn1nc2n(C)c(=O)c3ccc(C(=O)NC4CCCC4)cc3n2c1=O,0,4.14,0.385,4.54,3.44
Cn1c(=O)c2ccc(C(=O)NC3CCCCC3)cc2n2c(SCC(=O)NCc3ccccc3)nnc12,1.13,0.009,5.49,1.1,2.01
CC(C)CCNC(=O)C1(C)Cn2nc(C(=O)NCc3ccccc3Br)cc2C(=O)N1C (stereo unspecified),0.651,-1.6,-2.4,0.593,3.84
COc1ccc(C2(C(=O)N3CCCCCC3c3nc(C4CC4)no3)CC2)cc1 (stereo unspecified),-4.54,-6.65,-1.75,-0.296,0.134
CCOc1ccc(CNS(=O)(=O)c2ccc3c(c2)n(C)c(=O)n3C)cc1OC,4.36,-8.99,-5.9,-1.15,-8.65
O=C(NCCc1c[nH]c2ccc(Cl)cc12)c1cc2n(n1)CCCN(Cc1ccc(F)cc1)C2=O,0,-3.88,3.32,-9.97,9.98
CC(C)n1nc(-c2ccc(NC(=O)Nc3cccc(C(F)(F)F)c3)cc2)c2c(N)ncnc21,13.3,-76.5,-2.17,–,–
Cc1ccc(N2CCN(S(=O)(=O)c3ccc4c(c3)n(C)c(=O)n4C)CC2)c(C)c1,0,-0.512,6.74,14.5,10
CCOc1ccccc1CN1CCC[C@H]1C(=O)N1CCCCCCNC(=O)CC1,-10.1,-12.9,-11.5,-5.75,-7.26
CC1CCN(S(=O)(=O)c2cccc3c2C(=O)c2ccccc2C3=O)CC1,0,0.4,-7.61,-8.36,8.17
O=C(CC1CC1)N1C[C@H]2OC(=O)N(CCc3cccc(Cl)c3)[C@H]2C1,-4.27,-8.38,-3.1,-0.527,0.23
O=C(c1n[nH]c2ccccc12)N1CCC(N2C(=O)C(OCC3CC3)C23CCCCC3)CC1 (stereo unspecified),-12.2,-21.8,-13.6,-24.7,-6.18
COc1cc(Nc2ncc(F)c(Nc3ccc4c(n3)N(COP(=O)(O)O)C(=O)C(C)(C)O4)n2)cc(OC)c1OC,-14.3,-18.9,-6.71,-35.1,2.08
